Source: the supplement of paper PMC4466236
Over roughly 33,000 sequences, “E-score (dimensionless, -0.5 to 0.5)” has its median near -0.058; the highest 2% begin near 0.35. The list shows a part of the results.

These sequences were tested on MvaT (assay: PBM 8-mer E-score (mean of HK and ME arrays) (E-score (dimensionless, -0.5 to 0.5)); higher = stronger relative binding preference; most listed sequences are background and not binding sites).
Outline: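 Full-length P. aeruginosa MvaT, with glutathione S-transferase fused to its N-terminus (cloned into pTH6838 by isothermal assembly), was tested by protein binding microarray using a previously described protocol. Two universal double-stranded 60-mer arrays (ME and HK) were used, each with a constant 25-mer primer region and a variable 35-mer region covering all 8-mers. The rank-based 8-mer E-score (-0.5 to 0.5) is the mean of the two arrays, parsed with a custom Python script.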

Sequence | PBM 8-mer E-score
GGTCTGGA | -0.13
ATGTTAAG | 0.178
TACTCATA | 0.153
AGGATTAC | -0.143
ATCGCCAC | 0.0178
CTTCCACA | 0.0827
CCTAAAAC | -0.0237
AGTCAAAC | 0.153
GCAAACAA | 0.0823
ATCTTTGC | 0.0261
ACGTTTAA | 0.195
CTCGTTAA | 0.0773
AATTCGGA | 0.0801
CAACGTTG | 0.0711
GGCGTCCA | -0.193
CGGATCAG | -0.207
GATAAACA | 0.278
ACATAGGG | 0.054
GCTTTACA | 0.112
GGCAACTA | 0.0618
ACGGGTAT | 0.158
CAACATCG | 0.0671
CAACCAGA | -0.0974
AGCCTTGG | -0.159

Sequence | PBM 8-mer E-score
CCCAGAAG | -0.183
AAGTGTCC | 0.042
AGAATACT | 0.126
AACTAGTA | 0.303
CCCATTGA | -0.17
GCCATCAC | -0.0948
ATGTATGA | 0.159
GCACTCTA | -0.000778
CAACTAAA | 0.205
AACGAGTT | 0.162
CAAGTAAC | 0.265
CGAGGCTA | -0.0952
ATAGGGCA | -0.0415
CCATACCG | -0.195
AACAGCAT | 0.122
GCATGACC | -0.198
GACCGTCA | -0.261
AGTTAACA | 0.348
GTAAACAC | 0.0546
CACTTTCA | 0.136
TATGAATA | 0.232
AGTACCTA | 0.0753
AGCGAACT | -0.104
GACATATC | 0.113

Sequence | PBM 8-mer E-score
CAGAACAA | -0.0753
CCTCGAGC | -0.149
AGCCAACG | -0.346
ACGGGATA | 0.0845
ATAAGGTC | 0.118
AGTACTTA | 0.292
CCCAGGAG | -0.259
CCAGGGCA | -0.264
ACCACTAC | -0.0572
GTGCTAAA | 0.133
CATAGCCG | -0.254
CCCTCGAA | -0.157
GCAACTTA | 0.262
GCTCCGCA | -0.267
ATGCATTC | 0.109
AATGACCA | 0.0582
AGTTCGAC | 0.00973
CGTGCACA | -0.135
TCGGAAAA | -0.00542
TGATGACA | -0.0297
GCCCGCTA | -0.28
CGAATTAC | 0.126
ACTTATGC | 0.124
GAGATATC | 0.163

Sequence | PBM 8-mer E-score
CGCCGTAG | -0.186
GGCGAACC | -0.221
CAAAACTC | -0.00476
TCCCGCGA | -0.0244
CACAAATA | 0.338
GCGTCGCA | -0.0355
ACCAATAC | 0.171
TTAACAAA | 0.34
CGATACAA | 0.0538
AGAGAGCA | -0.185
ACAATACA | 0.262
AGGGTGCG | -0.239
CGGGTCCA | -0.221
CCGCGCGG | -0.227
CCACCAGC | -0.25
GACGCCGA | -0.204
GCCGGGAC | -0.263
AAGGCCAC | -0.103
AGGAGCGG | -0.155
ATGCCACA | 0.04
GGAGGTAC | -0.23
GAAACTGC | -0.0519
